The IC50 comes from the fitted curve, where viability falls to half of the control; where the fit passes the top or lowest dose, that dose stands as a limit. AUC is the area under the same curve over the 256-fold range up to the top dose, as a fraction; the more sensitive the line, the further below 1. For part of these data: Where the top dose is marked as inferred, it was derived from the fitted curves, not read from the paper.
How the values were obtained:
Experiment in all cases: Viability of human cancer cell lines after 72 h of drug (GDSC screen)
[1] = compound: CC[C@H](CO)Nc1nc(NCc2ccccc2)c2ncn(C(C)C)c2n1 [Roscovitine]; settings: top dose 16 µM; top dose inferred
Method: (§1)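 Human cancer cell lines in 384-well plates, medium with 10% serum, drug for 72 h over a 256-fold dose range (nine 2-fold or five 4-fold steps up to the top dose). Adherent lines were fixed and stained with the nucleic acid dye Syto60, suspension lines read with resazurin; signal relative to control wells, capped at 0 and 100%. One two-parameter sigmoid per drug and line, fitted in a mixed model over all curves with the slope shared within a line.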

[2] = compound: CO[C@@H]1[C@H](N(C)C(=O)c2ccccc2)C[C@H]2O[C@]1(C)n1c3ccccc3c3c4c(c5c6ccccc6n2c5c31)C(=O)NC4 [Midostaurin]; settings: top dose 0.512 µM; top dose inferred
Method: as §1

[3] = compound: CO[C@@]12[C@H](COC(N)=O)C3=C(C(=O)C(C)=C(N)C3=O)N1C[C@@H]1N[C@@H]12 [Mitomycin C]; settings: top dose 16 µM
Method: as §1

[4] = compound: COc1cc(Nc2c(C#N)cnc3cc(OCCCN4CCN(C)CC4)c(OC)cc23)c(Cl)cc1Cl [Bosutinib]; settings: top dose 2 µM
Method: as §1

[5] = compound: Cc1ccc(C(=O)Nc2cccc(C(F)(F)F)c2)cc1Nc1nc(-c2cccnc2)nc2c1cnn2C [NVP-BHG712]; settings: top dose 10.24 µM; top dose inferred
Method: as §1

[6] = compound: O=C(O)CNC(=O)c1c(O)c2ccccc2n(Cc2ccccc2)c1=O [IOX2]; settings: top dose 0.1 µM; top dose inferred
Method: as §1

Cell Line	AUC [1]	IC50 [1] [nM]	AUC [2]	IC50 [2] [nM]	AUC [3]	IC50 [3] [nM]	AUC [4]	IC50 [4] [nM]	AUC [5]	IC50 [5] [nM]	AUC [6]	IC50 [6] [nM]
NCI-SNU-1 (stomach, suspension)	0.922	> 16000	0.964	> 512	0.214	140	0.987	> 2000	0.657	1770	0.987	> 100
NCI-SNU-5 (stomach, suspension)	0.964	> 16000	0.982	> 512	0.242	178	0.979	> 2000	0.989	> 10200	0.979	> 100
NEC8 (testis, adherent)	0.942	> 16000	0.961	> 512	0.223	184	0.991	> 2000	0.921	> 10200	0.991	> 100
NH-12 (neuroblastoma, adherent)	0.985	> 16000	0.871	> 512	0.239	157	0.957	> 2000	0.795	5410	0.982	> 100
NKM-1 (acute myeloid leukaemia, suspension)	0.91	> 16000	0.534	39.7	0.073	< 62.5	0.885	> 2000	0.433	418	0.982	> 100
NMC-G1 (glioma, adherent)	0.875	> 16000	0.805	331	0.284	210	0.921	> 2000	0.858	> 10200	0.96	> 100
NOS-1 (osteosarcoma, adherent)	0.868	> 16000	0.842	486	0.566	1580	0.866	> 2000	0.748	3960	0.971	> 100
NTERA-2 cl.D1 (testis, adherent)	0.88	> 16000	0.756	174	0.028	< 62.5	0.971	> 2000	0.909	> 10200	0.984	> 100
NU-DUL-1 (B-cell lymphoma, suspension)	0.961	> 16000	0.944	> 512	0.079	< 62.5	0.901	1690	0.428	423	0.99	> 100
OCI-AML2 (acute myeloid leukaemia, suspension)	0.926	14200	0.892	338	0.034	< 62.5	0.97	> 2000	0.138	76.3	0.995	> 100
OCI-AML3 (acute myeloid leukaemia, suspension)	0.968	> 16000	0.981	> 512	0.314	330	0.979	> 2000	0.327	229	0.98	> 100
OCI-AML5 (acute myeloid leukaemia, suspension)	0.957	> 16000	0.868	399	0.198	142	0.942	> 2000	0.716	2450	0.987	> 100
OCI-LY-19 (B-cell lymphoma, suspension)	0.933	> 16000	0.805	234	0.047	< 62.5	0.78	759	0.47	533	0.982	> 100
OCI-M1 (acute myeloid leukaemia, suspension)	0.988	> 16000	0.984	> 512	0.448	746	0.992	> 2000	0.889	6900	0.994	> 100
OMC-1 (cervix, adherent)	0.986	> 16000	0.983	> 512	0.375	446	0.894	> 2000	0.97	> 10200	0.986	> 100
ONS-76 (medulloblastoma, adherent)	0.961	> 16000	0.812	302	0.336	337	0.806	1110	0.906	> 10200	0.983	> 100
OPM-2 (myeloma, suspension)	0.962	> 16000	0.948	> 512	0.779	5340	0.994	> 2000	0.809	4170	0.993	> 100
OS-RC-2 (kidney, adherent)	0.828	> 16000	0.808	424	0.333	278	0.859	> 2000	0.896	> 10200	0.975	> 100
P30-OHK (lymphoblastic leukaemia, suspension)	0.991	> 16000	0.838	266	0.067	< 62.5	0.815	874	0.49	603	0.989	> 100
P31-FUJ (acute myeloid leukaemia, suspension)	0.996	> 16000	0.996	> 512	0.714	3380	0.989	> 2000	0.995	> 10200	0.996	> 100
PF-382 (T-cell lymphoblastic leukaemia, suspension)	0.946	> 16000	0.89	461	0.288	276	0.928	> 2000	0.538	800	0.99	> 100

— the supplement of paper PMC4967469
